Whole data set: some 110,000 compounds, median “z-score” near -0.1, cut for the highest 2% near 2. Some of the results follow.
target: Metabotropic glutamate receptor 8 (Rattus norvegicus) (UniProt P70579); experiment: rat mGluR8 modulators via GIRK flux, primary screen, cell-based, thallium flux, HTS (AID 488969); settings: HEK293 rat mGluR8, GIRK (G protein-gated inwardly rectifying potassium channel) thallium flux, FluoZin2; at 10 µM; stronger effect = higher value; submaximal glutamate (EC20) added with thallium
Chain of UniProt P70579 (P70579 whole entry, looked up): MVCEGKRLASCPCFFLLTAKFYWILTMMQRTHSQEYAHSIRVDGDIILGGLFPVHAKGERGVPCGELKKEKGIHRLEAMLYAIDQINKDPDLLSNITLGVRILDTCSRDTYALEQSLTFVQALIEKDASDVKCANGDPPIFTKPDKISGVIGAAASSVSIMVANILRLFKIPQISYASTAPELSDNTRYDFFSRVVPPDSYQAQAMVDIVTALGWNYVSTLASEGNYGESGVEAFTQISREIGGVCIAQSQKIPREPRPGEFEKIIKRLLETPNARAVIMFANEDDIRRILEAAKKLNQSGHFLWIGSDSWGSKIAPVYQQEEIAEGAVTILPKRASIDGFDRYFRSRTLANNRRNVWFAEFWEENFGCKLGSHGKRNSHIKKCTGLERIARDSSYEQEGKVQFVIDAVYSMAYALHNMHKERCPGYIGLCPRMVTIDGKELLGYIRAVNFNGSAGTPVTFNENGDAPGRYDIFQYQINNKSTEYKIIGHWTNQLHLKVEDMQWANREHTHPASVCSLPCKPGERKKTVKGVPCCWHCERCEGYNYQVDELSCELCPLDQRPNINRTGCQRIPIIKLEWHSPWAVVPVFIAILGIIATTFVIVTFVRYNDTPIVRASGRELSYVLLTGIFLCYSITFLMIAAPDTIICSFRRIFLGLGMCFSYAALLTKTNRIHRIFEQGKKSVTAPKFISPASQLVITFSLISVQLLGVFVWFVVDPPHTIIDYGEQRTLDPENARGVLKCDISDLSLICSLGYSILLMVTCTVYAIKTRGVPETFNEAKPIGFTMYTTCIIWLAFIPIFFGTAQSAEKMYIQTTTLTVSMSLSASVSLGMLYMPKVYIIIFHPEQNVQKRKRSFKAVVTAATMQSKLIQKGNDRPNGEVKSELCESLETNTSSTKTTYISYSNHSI

| SMILES | z-score |
| --- | --- |
| CC12CC(c3ccccc3O1)C(/C(N)=N/NC(=O)c1ccc(F)cc1)C(=O)N2 (stereo not given) | 0.232 |
| COc1ccc(CCNC(=O)CN(C)S(=O)(=O)c2ccc3c(c2)CCC(=O)N3)cc1OC | 0.121 |
| CCN(CC)S(=O)(=O)c1ccc(Cl)c(C(=O)NCc2ccccc2Cl)c1 | -0.702 |
| c1ccc2c(SCc3cn4cccnc4n3)ncnc2c1 | -0.316 |
| O=C1S/C(=C\c2ccccn2)C(=O)N1Cc1ccccc1F | -0.204 |
| O=[N+]([O-])c1cc(S(=O)(=O)Nc2ccccc2)ccc1NCc1ccccc1 | -0.187 |
| Cc1nc2c3ccccc3n(CC(=O)c3ccc(F)cc3)c(=O)n2n1 | -0.2 |
| O=C(Nc1nc(-c2ccccc2)cs1)c1ccc2c(c1)S(=O)(=O)c1ccccc1C2=O | 0.0399 |
| CN(CC(=O)OCC(=O)c1c(N)n(C)c(=O)n(C)c1=O)S(=O)(=O)c1ccc(Cl)cc1 | -0.168 |
| CC(=O)N(c1ccc(Cl)cc1)c1c[nH]c2ccccc12 | -0.182 |
| O=C(c1cccc(F)c1)N1CCN(c2cccc(Cl)c2)CC1 | -0.373 |
| Cc1ccc(/C=C/C(=O)NC(=S)Nc2ccccc2C(=O)NC2CCCCC2)cc1 | -0.161 |
| CCOC(=O)c1c(C)[nH]c(C)c1C(=O)COC(=O)/C=C/c1cccc(F)c1 | -0.6 |
| CCOC(=O)c1c(C)c(C(=O)N2CCN(C(=O)c3ccco3)CC2)c(C)n1C | -0.146 |
| [N-]=[N+]=CC(=O)c1ccnc(C(=O)C=[N+]=[N-])c1 | 0.693 |
| Cc1ccc(OCCN2CCCCCC2)c(C)c1 | -0.124 |
| CCC(=O)Nc1cccc(NC(=O)CN2CCN(c3ccccc3OC)CC2)c1 | -0.00996 |
| CCOC(=O)CSc1ncnc2c1sc1nc(N3CCOCC3)c3c(c12)CCCC3 | -0.922 |
| CCOc1ccc(C(=O)NCC(=O)OCC(=O)Nc2ccccc2OCC)cc1 | -0.192 |
| CS(=O)(=O)N1CCN(c2ccc(NC(=O)Cc3ccccc3)cc2)CC1 | -0.115 |
| O=C(OCC(=O)N1CCCc2ccccc21)c1cnc(Cl)c(Cl)c1 | -0.558 |
| CC12CN3CCN(CC(C3)C1(O)CN1CCCCC1)C2 (stereo not given) | 1.24 |

| SMILES | z-score |
| --- | --- |
| Cc1c(C(=O)N2CCc3ccccc3C2)sc2nc(-c3ccccc3)cn12 | -0.414 |
| NC(=O)C1(NC(=O)[C@@H]2CC3(CC(c4cccc(NC(=O)[C@@H]5CCC(=O)N5)c4)=NO3)CN2C(=O)c2cnccn2)CC1 (stereo not given in full) | -0.226 |
| O=C(CNc1ccc2ccccc2c1)N/N=C/C=C/c1cccc([N+](=O)[O-])c1 | -0.239 |
| O=C(Nc1ccccc1C(=O)O)c1ccc(Cl)c(S(=O)(=O)N2CCOCC2)c1 | -1.65 |
| COc1cccc(NC(=O)C(Sc2nnc3ccccn23)c2ccccc2)c1 (stereo not given) | -0.184 |
| CCOC(=O)C(Cc1ccccc1)NC(=O)Cn1nnc(-c2ccccc2)n1 (stereo not given) | 1.79 |
| COc1ccc(Oc2coc3cc(OC(=O)/C=C/c4ccccc4)ccc3c2=O)cc1 | -0.00706 |
| COc1ccccc1NC(=O)CCC(=O)c1ccc(-c2ccccc2)cc1 | -0.159 |
| O=C(c1ccccc1)N(Cc1cccs1)C1CCS(=O)(=O)C1 (stereo not given) | 0.358 |
| NS(=O)(=O)c1cccc(NC(=O)COC(=O)C2(c3cccc(F)c3)CCCC2)c1 | 0.0402 |
| O=C(NCN1CCN(CCO)CC1)c1cnccn1 | -0.0242 |
| C=CCn1c(Cc2csc(N)n2)nnc1SCC(=O)OCC | 0.666 |
| COc1cccc(CC(NC(C)=O)C(=O)NC2CCN(S(=O)(=O)c3ccc4ccccc4c3)CC2)c1 (stereo not given) | -0.102 |
| CCCCNC(=O)C(C#N)c1nc2ccccc2nc1N1CCN(c2ccccc2F)CC1 (stereo not given) | 0.299 |
| COc1ccc(OC)c(C(=O)c2coc3ccc(OC)cc23)c1 | -0.303 |
| CC(C)Sc1nc2ccccc2n1CC(N)=O | 0.432 |
| Cc1nc2ccc(C(=O)N3CCSCC3)cc2s1 | 0.882 |
| CCNc1ccc(S(N)(=O)=O)cc1[N+](=O)[O-] | -0.06 |
| O=C1c2ccccc2C(Nc2ccc(S(=O)(=O)N3CCCCC3)cc2)N1c1ccccn1 (stereo not given) | -0.00712 |
| C#CCNc1c(C)c(C)nc2ncnn12 | 0.697 |
| CN(C)CCOC(=O)C12CC3(C)CC(C)(CC(C)(C3)C1)C2 | 1.1 |
| O=c1[nH]c2ccccc2n1Cc1ccccc1 | 0.106 |

| SMILES | z-score |
| --- | --- |
| Cc1c(C#N)c(N)nc2c3c(sc12)NC(=O)CC3c1ccc(F)cc1 (stereo not given) | 0.762 |
| O=C(OCCN1C(=O)c2cccc3c(N4CCOCC4)ccc(c23)C1=O)c1ccccc1Cl | -0.723 |
| COc1ccc(C(C[N+](=O)[O-])c2c(-c3ccccc3)cc3ccccn23)c(OC)c1 (stereo not given) | -0.493 |
| O=C(Nc1ccc(-c2csc(-c3ccccc3)n2)cc1)c1ccccc1 | -0.0473 |
| OCCNCC1(O)C2CC3CC(C2)CC1C3 (stereo not given) | 0.157 |
| COc1ccc(CN2CCN(C(=O)CC(C)C)CC2)c(OC)c1OC | -0.112 |
| Cn1nnnc1SCC(=O)Nc1ccc(Oc2ccc(Cl)cc2)cc1 | -0.515 |
| COc1ccc(S(=O)(=O)NCCSCc2ccco2)cc1Cl | -0.151 |
| CC(C)(C)NC(=O)C(=O)NCCC1=CCCCC1 | -0.42 |
| S=c1[nH]nc(-c2ccccc2)n1/N=C/c1c[nH]c2ccccc12 | -0.681 |
| CC1(C)CCc2nc(SCc3ccccc3)c(C#N)cc2C1 | 0.224 |
| COc1nc(NC(C)=O)nc(C)c1Br | 0.00324 |
| O=C(NC(C(=O)c1ccccc1)n1c(=O)cc[nH]c1=S)c1ccccc1 (stereo not given) | -0.361 |
| CC(c1ccco1)N(C(=O)c1ccc(Cl)s1)c1ccccn1 (stereo not given) | 0.635 |
| C/C(CC1CC(C)(C)OC1=O)=N/Nc1nc(-c2ccccc2)cs1 (stereo not given) | 0.992 |
| Cc1ccc(S(=O)(=O)N2CCN(C(=O)N3CCOCC3)C2C)cc1 (stereo not given) | 0.328 |
| COc1ccccc1NC(=O)c1ccc(S(=O)(=O)N(C)C)cc1 | -0.403 |
| CC1CCN(C(=O)c2ccc(CSc3ccc(Cl)cc3)cc2)CC1 | 0.015 |
| Cc1cc(C)cc(OCC(=O)Nc2ccc(F)cc2)c1 | -0.191 |
| Cc1ccc2c(c1)nnn2C1CCN(S(=O)(=O)c2ccc3ccccc3c2)CC1 | -0.698 |
| CC(C)CNC(C(=O)Nc1ccc([N+](=O)[O-])cc1Br)c1ccccc1 (stereo not given) | -0.337 |
| CCOc1ccc(CC(=O)OCN2C(=O)c3ccccc3C2=O)cc1 | -0.211 |

| SMILES | z-score |
| --- | --- |
| Cc1c(C(=O)Nc2nc3ccccc3[nH]2)oc2ccc(Br)cc12 | -0.0784 |
| COc1ccc(-n2c(SCC(=O)Nc3cc(C)on3)nc3c(c2=O)SCC3)cc1 | -0.275 |
| CCCc1cc(=O)[nH]c(SCC(=O)c2c(N)n(C)c(=O)n(C)c2=O)n1 | -1.04 |
| Cc1ccc(/C=N/n2c(C)nnc2C)o1 | -0.158 |
| CCc1ccccc1N1C(=O)c2ccccc2S1(=O)=O | -0.409 |
| Cc1noc(C)c1C(=O)Nc1sc2c(c1C(N)=O)CCC2 | -0.0007 |
| CCOC(=O)C1CCN(S(=O)(=O)c2ccc(OC)c(OC)c2)CC1 | -0.335 |
| O=C(OC1CCOC1=O)c1cccc(S(=O)(=O)Nc2cccc(Cl)c2)c1 (stereo not given) | -0.013 |
| O=C(Nc1ccc(F)cc1F)N1CCN(C/C=C/c2ccccc2)CC1 | 0.319 |
| COC(=O)c1cc(NC(=O)CN(c2ccccc2OC)S(=O)(=O)c2ccccc2)ccc1Cl | -0.231 |
| CC(C)[C@H](NC(=O)OC(C)(C)C)C(=O)N/N=C/c1cccc2nccnc12 | -0.141 |
| Cc1cc(OCC(F)(F)C(F)(F)C(F)(F)C(F)(F)C(F)(F)C(F)F)nc(N)n1 | 0.795 |
| COc1ccc(CC(=O)OCCN(C)C)cc1 | 0.0321 |
| CCOc1cc(C=C2C(=O)c3ccccc3C2=O)ccc1OCC(=O)Nc1ccc(C)cc1 | -0.0379 |
| Cc1cc(C)cc(NS(=O)(=O)c2cnc(Cl)c(Cl)c2)c1 | -0.179 |
| CC(=O)/C(=N/Nc1ccccc1C)N1CCOCC1 | -0.117 |
| CCOC(=O)c1sc(NC(=O)CNC(=O)Cn2cnc3sc(C)c(C)c3c2=O)nc1C | 0.101 |
| Cc1[nH]c2ccccc2c1C(=O)CN1CCC2(CC1)OCCO2 | -0.0577 |
| Cc1cc(Oc2ccccc2)nc(SCC(=O)Nc2ccccc2)n1 | 1.61 |
| NC(=O)c1cc2n(n1)C(C(F)(F)F)CC(c1ccco1)N2 (stereo not given) | 0.154 |
| COc1ccc(-c2nc(CSCC(=O)NC3CCCc4ccccc43)c(C)o2)cc1OC (stereo not given) | 0.0311 |
| CNC(=O)Nc1nnc(C(C)(C)C)s1 | -0.522 |

| SMILES | z-score |
| --- | --- |
| Cc1nn(C)c(C)c1NC(=O)c1ccnn1C | -0.0844 |
| Cc1cccc(Oc2ncnc3onc(C)c23)c1 | 0.0845 |
| Cn1c(NN)nc2sc3c(c2c1=O)CCC3 | -0.0646 |
| COc1ccc(C(c2nnnn2Cc2cccs2)N2CCN(c3ccccc3F)CC2)cc1 (stereo not given) | 0.62 |
| O=C(CSCc1ccccc1)Nc1ccc(S(=O)(=O)N2CCOCC2)cc1 | -0.124 |
| Fc1ccc(Cn2c(-c3cscn3)nc3ccccc32)c(Cl)c1 | -0.154 |
| CC(C)CC(=O)Nc1nnn(C)n1 | 0.332 |
| Cc1ccc(NC(=O)c2ccco2)cc1C | 0.23 |
| CCOC(=O)/C(=C\Nc1ccccc1C(F)(F)F)Sc1ncc(C(F)(F)F)cc1Cl | -0.191 |
| Cc1cccc(N(CC(=O)N2CCOCC2)S(C)(=O)=O)c1 | -0.316 |
| O=C(COC(=O)c1cc(-c2ccccc2Cl)nc2ccccc12)Nc1ncc(C(F)(F)F)cc1Cl | -0.65 |
| CC1=CCC2C(=O)N(CCc3c[nH]c4ccccc34)C(=O)C2C1 (stereo not given) | -0.147 |
| O=C(/C=C/NCc1ccc(F)cc1)c1ccccc1 | -0.0387 |
| O=C(CNS(=O)(=O)c1ccccc1)OCc1cccc([N+](=O)[O-])c1 | -0.557 |
| CC1CCN(S(=O)(=O)c2ccc(NC(=O)Cc3cccs3)cc2)CC1 | 0.311 |
| COC(=O)c1ccccc1N/C=C/C(=O)c1ccc(Br)cc1 | 0.287 |
| O=C(CSc1nnc(Nc2ccccc2F)s1)NCc1ccco1 | 0.824 |
| CS(=O)(=O)N1CCc2cc(C(=O)O)ccc21 | 1.16 |
| Cn1c(SCC(=O)Nc2cccc3ccccc23)nc(O)cc1=O | -0.188 |
| Cc1ccc(-c2nnc(Nc3ccc4c(c3)OCO4)c3ccccc23)cc1S(=O)(=O)NCCO | -0.266 |
| Cc1ccc(Nc2nc(CSc3nnc(-c4ccccc4C)n3C)cs2)cc1 | -0.618 |
| O=C(c1cccs1)c1cn(CC(=O)N2CCc3ccccc3C2)c2ccccc12 | -0.134 |
